Laboratory results published in the supplement of paper PMC4723716.
± gives the uncertainty stated by the source. Over roughly 9,900 compounds, “viability index relative to DMSO control” has its median near 1; the lowest 2% begin near 0.85. The list shows a part of the results.

Tested on: Plasmodium falciparum NF54 stage V gametocytes
Experiment: viability index relative to DMSO control (fraction); higher = less gametocyte killing
Details: 2.5 µM, incubation time: 72 h
Summary of the method: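 P. falciparum NF54 stage V gametocytes in serum-free screening medium (0.75% gametocytemia, 1.25% hematocrit, 10 µl) were incubated with compound at 2.5 µM in 1,536-well plates for 72 hr at 37°C under low oxygen. Then 3 µl of 2.5 µM MitoTracker Red CMXRos plus 0.13% saponin was added for one to two hours. One field per well was imaged, 20–70 µm2 red particles were counted, and the viability index was the count divided by the plate mean of DMSO wells.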

[1] = library set: Broad Institute DOS

CO[C@H]1CN(C)C(=O)c2cc(NS(=O)(=O)CC(F)(F)F)ccc2OC[C@@H](C)NC[C@H]1C
viability index [1]: 1.07 ± 0.0046

C[C@@H]1CN([C@H](C)CO)C(=O)c2cc(NC(=O)Nc3cccc4ccccc34)ccc2O[C@@H](C)CCCCO[C@@H]1CN(C)S(=O)(=O)c1cn(C)cn1
viability index [1]: 0.948 ± 0.077

Cc1ccc(CN2CC(=O)N3[C@@H](CO)[C@H](c4ccc(-c5ccccc5F)cc4)[C@@H]3C2)cc1
viability index [1]: 0.96 ± 0.021

CCc1cnc(N2[C@H](CO)[C@@H](c3ccc(C4=CCCCC4)cc3)[C@@H]2C#N)s1
viability index [1]: 1.085 ± 0.0089

O=C(c1cnccn1)N1CC(=O)N2[C@@H](CO)[C@@H](c3ccc(-c4cccc(F)c4)cc3)[C@@H]2C1
viability index [1]: 1.02 ± 0.058

COc1cccc(-c2ccc3n(c2=O)C[C@@H]2N[C@H]3[C@H](C(=O)N3CCCCC3)[C@H]2CO)c1
viability index [1]: 0.998 ± 0.044

CN(C)Cc1cn(CC[C@@H]2CC[C@H](NC(=O)Cc3cccnc3)[C@H](CO)O2)nn1
viability index [1]: 1.04 ± 0.047

COCCNC(=O)C[C@@H]1CC[C@H]2[C@H](COc3ccc(NC(=O)Nc4cccc(F)c4)cc3C(=O)N2C)O1
viability index [1]: 1.07 ± 0.041

COc1ccc(C(=O)Nc2ccc3c(c2)C(=O)N(C)[C@H]2CC[C@@H](CC(=O)NCC4CC4)O[C@H]2CO3)cc1
viability index [1]: 1.01 ± 0.091

C[C@@H]1CCCCO[C@H](CN(C)Cc2ccc(C(F)(F)F)cc2)[C@H](C)CN([C@@H](C)CO)C(=O)c2cc(NC(=O)Nc3cccc4ccccc34)ccc2O1
viability index [1]: 1.04 ± 0.12

C=C(C)C[C@@H]1CCn2cc(nn2)COCCNC1=O
viability index [1]: 1.06 ± 0.054

C/C=C/c1ccc([C@@H]2[C@H](C#N)N(c3nc(CC)cs3)[C@H]2CO)cc1
viability index [1]: 1.06 ± 0.08

C/C=C/c1ccccc1[C@@H]1[C@@H](C#N)N(C(=O)Cc2ccccn2)[C@H]1CO
viability index [1]: 1.06 ± 0.026

C[C@@H]1CN([C@@H](C)CO)C(=O)CCCn2nncc2CO[C@@H]1CN(C)C(=O)c1ccc(N2CCN(C)CC2)cc1
viability index [1]: 1.08 ± 0.044

COCC(=O)Nc1ccc2c(c1)[C@@H]1C[C@H](CC(=O)N[C@@H](C)c3ccccc3)O[C@H](CO)[C@@H]1O2
viability index [1]: 1.092 ± 0.0061

CC(=O)N1[C@H](CO)[C@@H]2c3ccccc3N(C(=O)c3ccc(F)cc3)C[C@@H]21
viability index [1]: 1.03 ± 0.17

CCCC#Cc1ccc2c(c1)O[C@H](CN(C)Cc1ccccn1)[C@@H](C)CN([C@@H](C)CO)S2(=O)=O
viability index [1]: 1.02 ± 0.084

C[C@@H]1CN([C@@H](C)CO)C(=O)c2cc(-c3ccc(F)cc3)cnc2O[C@H]1CN(C)S(C)(=O)=O
viability index [1]: 1.07 ± 0.011

C/C=C/c1ccc([C@H]2[C@@H](CO)N(Cc3cncnc3)C23CN(C(=O)COC)C3)cc1
viability index [1]: 0.929 ± 0.081

O=C(Cc1cccnc1)N1[C@H](CO)[C@H](c2ccccc2)[C@@H]1CNCC1CCC1
viability index [1]: 1.08 ± 0.013

O=C(Nc1cc(F)ccc1F)N1CCCCN2[C@@H](CO)[C@@H](c3ccc(C4=CCCCC4)cc3)[C@@H]2C1
viability index [1]: 0.818 ± 0.063

CCCC(=O)N1C[C@@]2(C1)CN(CC1CC1)[C@@H](CO)c1[nH]c3cc(OC)ccc3c21
viability index [1]: 1.03 ± 0.03

COc1cccc(NC(=O)N2CC(=O)N3[C@H](C2)[C@H](c2ccc(C4=CCCCC4)cc2)[C@@H]3CO)c1
viability index [1]: 1.03 ± 0.021

O=C(c1ccccc1F)N1CC[C@H]2[C@H](CO)Nc3ccc(Br)cc3[C@H]21
viability index [1]: 1.079 ± 0.0094

CO[C@H]1CN(C)C(=O)c2ccc(NS(C)(=O)=O)cc2OC[C@@H](C)N(CC2CC2)C[C@H]1C
viability index [1]: 1.09 ± 0.065

CCN1[C@H](C(=O)NCCOC)[C@@H](CO)[C@@H]2Cn3c(ccc(-c4ccc(C(=O)N(C)C)cc4)c3=O)[C@@H]21
viability index [1]: 0.99 ± 0.058

C[C@@H]1CN([C@@H](C)CO)C(=O)Cc2cc(NC(=O)Cn3cnnn3)ccc2O[C@@H]1CN(C)S(=O)(=O)c1ccc(Cl)cc1
viability index [1]: 1.04 ± 0.013

CO[C@H]1CN(C)C(=O)c2cc(NC(=O)c3ccc(Oc4ccccc4)cc3)ccc2OC[C@@H](C)NC[C@@H]1C
viability index [1]: 1.07 ± 0.091

Cc1cc(C(=O)Nc2ccc3c(c2)C(=O)N(C)[C@H]2CC[C@@H](CC(=O)NCc4ccc(-c5ccccc5)cc4)O[C@@H]2CO3)no1
viability index [1]: 1.12 ± 0.093

CS(=O)(=O)N1[C@H](CO)[C@H](c2ccccc2)C12CN(C(=O)c1ccccc1F)C2
viability index [1]: 1.09 ± 0.043

O=C(C[C@@H]1C[C@@H]2c3cc(NC(=O)Nc4ccccc4)ccc3O[C@@H]2[C@H](CO)O1)NCc1ccccc1
viability index [1]: 1.01 ± 0.018

C[C@H](CO)N1C[C@H](C)[C@H](CN(C)C(=O)c2cc(-c3ccccc3)on2)OCc2cnnn2CCCC1=O
viability index [1]: 1.04 ± 0.038

CCS(=O)(=O)N1[C@H](CO)[C@@H](c2ccccc2C2=CCCCC2)[C@@H]1C#N
viability index [1]: 1.03 ± 0.013

C[C@@H](O)C#Cc1ccc([C@@H]2[C@@H](CO)N3CCCCN(C(=O)c4ccc5c(c4)OCO5)C[C@@H]23)cc1
viability index [1]: 0.982 ± 0.088

CO[C@H]1CC[C@H]2CCN(C)C(=O)[C@@H](C)CN(C)C(=O)c3cc(C#N)ccc3OC[C@H]1O2
viability index [1]: 1.05 ± 0.034

O=C(Cc1ccccn1)N[C@H]1CC[C@H](CCNS(=O)(=O)c2cccc(F)c2)O[C@H]1CO
viability index [1]: 0.878 ± 0.14

C[C@H](NC(=O)C[C@H]1CC[C@H]2[C@@H](COC[C@@H](O)CN2C(=O)Nc2cccc(Cl)c2)O1)c1ccccc1
viability index [1]: 1.05 ± 0.032

COc1ccccc1NC(=O)N[C@@H]1CC[C@H](CCNS(=O)(=O)c2ccc(Cl)cc2)O[C@@H]1CO
viability index [1]: 0.919 ± 0.1

CCNC[C@@H]1[C@H](c2ccccc2)[C@@H](CO)N1C(=O)Cc1ccccn1
viability index [1]: 1.06 ± 0.042

COc1ccc(NC(=O)N2[C@@H]3CNC[C@H]2[C@@H]3c2ccc(/C=C/c3ccccc3)cc2)cc1
viability index [1]: 1.05 ± 0.046

COCc1cn([C@@H]2C[C@@H]3O[C@H](CO)CC[C@@H]3O[C@@H]2CCc2ccc(-c3ccc(OC)cc3)cc2)nn1
viability index (library set: Broad Institute Blood Stage): 0.791 ± 0.041

COc1cccc(S(=O)(=O)N2C[C@@H](O)COC[C@@H]3O[C@@H](CC(=O)N4CCN(c5ccccc5)CC4)CC[C@H]32)c1
viability index [1]: 0.971 ± 0.021

N#C[C@H]1[C@@H](c2ccccc2-c2cccc(F)c2)[C@@H](CO)N1C(=O)CN1CCOCC1
viability index [1]: 1.134 ± 0.0063

COc1ccc2c3c([C@H](CO)NC[C@]33CN(Cc4ccccc4Cl)C3)n(C)c2c1
viability index [1]: 0.995 ± 0.011

N#C[C@@H]1[C@@H](c2ccccc2-c2ccccc2F)[C@H](CO)N1C(=O)Cc1ccccc1
viability index [1]: 1.15 ± 0.0062

COc1ccccc1C#Cc1ccc([C@H]2[C@@H](C#N)N(C(=O)C3CCC3)[C@H]2CO)cc1
viability index [1]: 0.846 ± 0.07
